Measurements taken from PubChem BioAssay AID1508624 (National Center for Advancing Translational Sciences (NCATS), 2021).
About 120 (0.25%) of roughly 48,000 compounds were called active. About 4% were inconclusive and are not listed. The call rests on the fitted dose curve; in most records, active means well fitted activation curve with a large enough effect; inconclusive means small, poorly fitted or top-dose-only effect, or another doubt; inactive means no such curve, though single readings can be large or run the other way. Only a part is listed here, and it is no random draw. Where no call is shown, the source filed none.

Test: Primary qHTS for Identification of Small Molecule Activators of Huntingtin-Antisense Promoter Activity; further: nearly all actives have a fitted effect of over 55% in size
Settings: HEK293 HTT-AS promoter firefly luciferase reporter, 24 h; activity change, positive = activation: at 57.5 µM (top of the series), percent change from vehicle, -100% = no light
Source text: Assay Provider: Russell L. Margolis M.D.
Department Neurology, Johns Hopkins University School of Medicine, Baltimore, MD
Huntington's Disease (HD) is a neurodegenerative disorder caused by a CAG repeat expansion in exon 1 of huntingtin (HTT). While there are currently no disease-modifying treatments for HD, recent efforts have focused on development of nucleotide-based therapeutics to lower HTT expression. As an alternative to siRNA or oligonucleotide methods, we hypothesized that suppression of HTT expression might be accomplished by small molecules that either (1) directly decrease HTT expression by suppressing HTT promoter activity or (2) indirectly decrease HTT expression by increasing the promoter activity of HTT-AS, the gene antisense to HTT that appears to inhibit expression of HTT.
We developed and employed a high throughput screen for modifiers of HTT and HTT-AS promoter activity using luminescent reporter HEK293 cells; of the 52,041 compounds tested, we identified 898 replicable hits. We used a rigorous stepwise approach to assess compound toxicity and the capacity of the compounds to specifically lower huntingtin protein in 5 different cell lines, including HEK293 cells, HD lymphoblastoid cells, mouse primary neurons, HD iPSCs differentiated into cortical-like neurons, and HD hESCs. We found no compounds which were able to lower huntingtin without lowering cell viability in all assays, though the potential efficacy of a few compounds at non-toxic doses could not be excluded.
SEQUENCE No. (1, 2, 3, etc.); […] (e.g., Cells, Incubation, Reagent, etc.); VALUE and DESCRIPTION.
1; Reagent; 4 uL; 2,500 Hek293 luciferase reporter cells per wells
3; Compound; 23 nL; Control inhibitor / compound library
5; Reagent; 2.5 uL; Firefly Luc reagent; Dual-Glo Luciferase Reporter Assay System (Promega)
6; Time; 10 min; room temperature incubation
7; Detection; Luminescence; FLuc
NOTES (numbers refer to sequence above)
1; High-throughput screening, measuring luminescence from a Hek293 luciferase reporter, was performed in 1,536 well white-walled tissue-culture treated plates. 2,500 cells were plated in 4 µL of Opti-MEM per well using a Multidrop Combi Reagent Dispenser (ThermoFisher).
2; Assay plates were cultured for 24 hours.
3; Control inhibitor (PTC124; final concentration of 50 uM) and compound library (at final concentrations of 460 nM - 57.5 uM) were added to the assay plate using the Kalypsis Pintool Robotic System equipped with 1536 pinheads.
4; Cells were then incubated for 24 hours at 37 degrees C prior to luminescence measurements.
5; In all cases, luminescence was measured using the Dual-Glo Luciferase Reporter Assay System (Promega) following the manufacturer's instructions.
6; Room temperature incubation.
7; Luminescence signal was obtained using the PerkinElmer ViewLux plate reader. Results were normalized to vehicle control (0% activity) and zero RLU (-100% activity).
Potency means the concentration at half of the fitted maximal effect.

Compound	activity change, positive = activation	Potency
CC(=O)c1cc2c(cc1NC(=O)c1c(C)nn(-c3ccc(C)cc3)c1-n1cccc1)OCO2	4.04%	–
CC1CCN(Cc2c(O)ccc3c(=O)c(-c4cccc(Cl)c4)c(C(F)(F)F)oc23)CC1	4.2%	–
CCCCCCCCCCCCCCCC(=O)O[C@H]1[C@@H](O)[C@@H](O)[C@@H]([C@H](NC(=O)[C@@H]2C[C@@H](CCC)CN2C)[C@H](C)Cl)O[C@@H]1SC	inactive: -11.4%	–
COc1ccccc1C(=O)Nc1cc2c(cc1N1CCOCC1)n(C)c(=O)n2C	1.29%	–
Cc1cccc(NS(=O)(=O)c2ccc3oc(=O)c4ncn(C)c4c3c2)c1C	-14.1%	–
CC(C)c1nn(-c2c(Cl)cccc2Cl)c2nc(Cc3ccc(OCCO)cc3)[nH]c(=O)c12	inactive: -41.7%	–
Cc1cccc(CNC(=O)Cn2nc(C)n3c(cc4cc(F)ccc43)c2=O)c1	-10.2%	–
COc1ccc2c(c1)CCc1c(C(=O)Nc3ccc(F)c(Cl)c3)noc1-2	35.1%	–
COc1ccc(S(=O)(=O)N(CCc2ccccc2)CC(=O)Nc2ccc(C)c(C)c2)cc1OC	-30.8%	–
O=C(Nc1cccc(-c2nc3ccccc3o2)c1)c1ccc(-c2ccc(Br)cc2)o1	2.67%	–
O=S(=O)(Nc1ccc(-c2ccc(N3CCCC3)nn2)cc1)c1ccc(Cl)cc1	3.86%	–
CCOC(=O)c1cccc(NC(=O)CC2C(=O)N(c3ccc(OC)cc3)C(=O)N2C2CCCC2)c1 (configuration not stated)	-15.1%	–
COC(=O)CN1C(=O)CSc2ccc(S(=O)(=O)Nc3cccc(C)c3C)cc21	-24.2%	–
CCOc1ccc(CNC(=O)c2cc3c(=O)n(Cc4cccs4)ccc3nc2C)cc1	-20%	–
CCc1c(C)sc(NC(=O)c2cc(-c3ccc(OC)cc3)on2)c1C#N	-6.35%	–
CCOc1ccc(CCNC(=O)CSc2n[nH]c(-c3ccccc3)n2)cc1OCC	inactive: -11.9%	–
Cc1ccc(O)c(NC(=O)c2cc(-c3ccc4c(c3)OCO4)on2)c1	64.2%	–
CCCOC(=O)c1c(NC(=O)C2c3ccccc3Oc3ccccc32)sc2c1CCCC2	-2.8%	–
Cc1c(NC(=O)c2cc(-c3cccc(O)c3)on2)c(=O)n(-c2ccccc2)n1C	-20.3%	–
Cc1ccc(NC(=O)CSc2nnc3[nH]c(=O)cc(-c4ccccc4)n23)cc1Cl	–	active: 14.1 µM
CCCCOc1ccc(S(=O)(=O)Nc2ccc(-c3ccc(N4CCC(C)CC4)nn3)cc2)cc1	4.29%	–
CCc1nn(CC(=O)NC(C)CCc2ccccc2)c(=O)c2cc3c(OC)cccc3n12 (configuration not stated)	-0.363%	–
Cc1cccc(-n2ncc3c(N4CCCC(C)C4)ncnc32)c1 (configuration not stated)	inactive: -63.2%	–
CCc1c(C)c2cc3c(c(C)c2oc1=O)OCN(CCc1ccc(OC)c(OC)c1)C3	-20.2%	–

Compound	activity change, positive = activation	Potency
COc1ccc2[nH]cc(CCNC(=O)Nc3cc(C)cc(C)c3)c2c1	inactive: 7.14%	–
COc1ccccc1CNC(=O)C1CCN(S(=O)(=O)Cc2ccccc2)CC1	0.588%	–
COc1cc(C2CC(=O)c3c([nH]c(C(=O)OC4CCCC4)c3C)C2)cc(OC)c1OC (configuration not stated)	inactive: -54%	–
COc1ccc(CCNc2oc(COc3cccc(C)c3)nc2C#N)cc1OC	inactive: -31.9%	–
CCCc1cc(=O)[nH]c(Nc2ccccc2O)n1	4.27%	–
Cc1nn(-c2ccc(N3CCCC3)nn2)c(C)c1CCC(=O)NCc1ccccc1	1.25%	–
Cc1nn(-c2ccc(N3CCCC3)nn2)c(C)c1CCC(=O)Nc1ccccc1	5.5%	–
CCOC(=O)c1ccc(N2CCN(c3cc(Cl)ccc3C)CC2)c(NC(=O)Nc2ccc(OCC)cc2)c1	-1.59%	–
CCOC(=O)c1ccc(N2CCN(c3ccc(F)cc3)CC2)c(NC(=O)Nc2ccc(CC)cc2)c1	15%	–
O=C1C(=O)N(C2CCN(C(=O)c3ccccc3F)CC2)CCN1Cc1ccc(F)cc1	2.22%	–
CC(C)OCc1cc(CN2CCN(c3cccc(C(F)(F)F)c3)CC2)c(O)c2ncccc12	inactive: -32.8%	–
CCOc1ccc(S(=O)(=O)Nc2cccc(-c3ccc(N4CCC(C)CC4)nn3)c2)cc1	35.7%	–
CCOc1ccc2ncc3c(-c4cccc(OC)c4)nn(-c4ccccc4)c3c2c1	inactive: -28.3%	–
CCOC(=O)c1nc(NCc2ccc(Cl)cc2)c2c(C)noc2n1	inactive: -18.7%	–
Cc1c(C)c2cc3c(c(C)c2oc1=O)OCN(CCc1ccc(F)cc1)C3	-8.52%	–
COC(=O)c1ccc(NC(=O)CC2C(=O)N(c3ccccc3)C(=O)N2Cc2ccc(F)cc2)cc1 (configuration not stated)	-18.8%	–
O=C(Nc1cccc(Cl)c1)C1CCN(S(=O)(=O)Cc2ccccc2)CC1	-4.36%	–
COc1ccc(C2(N3CCN(c4cccc(C)c4C)CC3)C(=O)c3ccccc3C2=O)cc1	0.291%	–
Cc1ccc(S(=O)(=O)N2CCCc3cc(NS(=O)(=O)c4ccc(C)c(C)c4)ccc32)cc1	inactive: -26.3%	–
COc1ccc(C2=C(N3CCN(c4cc(C)ccc4C)CC3)c3ccccc3C2=O)cc1	3.8%	–
COc1ccc(Nc2nnc(-c3ccc(C)c(S(=O)(=O)NCCO)c3)c3ccccc23)cc1C(N)=O	-1.02%	–
Fc1ccc(C(NCCc2ccccc2)c2nnc(-c3ccccc3Cl)o2)cc1 (configuration not stated)	-14.8%	–
CC(C)c1cc(C(=O)NCc2ccccc2)no1	72.1%	–
